ChEMBL document CHEMBL4888484, “Replenishing the malaria drug discovery pipeline: Screening and hit evaluation of the MMV Hit Generation Library 1 (HGL1) against asexual blood stage Plasmodium falciparum ,using a nano luciferase reporter read-out” (2022)
Hit rate of the full screen: of about 150,000 compounds, about 540 (0.36%) showed an effect of 50% or more. This is one part of the list.

Each compound was assayed on Plasmodium falciparum (assay: Primary screen in NF54 nanoGlo assay, in single point, at 2uM, 72h; a lower Z score goes with more inhibition). Details: timepoint 72 hour.
Format: functional, Erythrocyte

Row | SMILES | % Inhibition [%] | Z score
1 | Cc1cccc([C@H](C)NCC(=O)N2CCC3(CC2)OCCO3)c1C | -16 | 1.57
2 | COc1ccccc1OCC(=O)N1CC(N2CCC(OC)CC2)C1 | -3 | 0.44
3 | Cc1nnc(CNC(C)C(C)c2ccccc2)o1 (stereo not given) | -8 | 0.96
4 | CCN1CCC2CCC(C1)N2c1cc(C)nc(COC)n1 (stereo not given) | -11 | 0.99
5 | CC1(C)C[C@@H](CNC(=O)c2cccc3oc(=O)[nH]c23)CCO1 | 4 | -0.71
6 | Cc1ccccc1C(=O)N(Cc1cccc(F)c1)c1ccc(CC(=O)N2CCN(C)CC2)cc1 | -1 | 0.17
7 | Cc1ccc2oc(=O)n(C3CCN(C(=O)c4cccc(Cl)c4Cl)CC3)c2c1 | 18 | -2.5
8 | O=C(CN1C2CCC1c1ccccc12)Nc1ccc2c(c1)OCO2 | -7 | 1.07
9 | C[C@H]1CCCCN1C(=O)CN1CCN(C(=O)Cc2ccon2)CC1 | 1 | -0.15
10 | CCC(CC)c1cc([C@H]2CN3CC[C@H]2C[C@@H]3CO)nc(-c2ccncc2)n1 | 25 | -2.22
11 | CCN1CCN2c3cccc(Cl)c3CC3(C(=O)NC(=O)N(C(C)(C)C)C3=O)C2C1 (stereo not given) | -4 | 0.68
12 | CC(=O)N1CCC(CN(C)C(=O)NC(C)Cc2ccc(C)cc2C)C1 (stereo not given) | -6 | 0.82
13 | Cc1cccc([C@@H]2c3cccn3-c3ccccc3CN2C(=O)Nc2ccc(C)cc2Cl)c1 | -11 | 1.39
14 | COc1cccc([C@H]2CN(C(=O)CC3CCCC3)[C@@H]3C4CCN(CC4)[C@H]23)c1 | -7 | 0.82
15 | Cn1cc(CN2C[C@@H]3C[C@H](C2)c2ccc(-c4cccnc4)c(=O)n2C3)c2ccccc21 | 23 | -2.68
16 | CCCn1c(-c2cccc(C(=O)N3CCC4(CC3)OCCO4)c2)nc2cccnc21 | -22 | 2.95
17 | COc1ccc(C(=O)N2[C@H]3CC[C@@H]2c2cnc(C)nc2C3)cc1OC | -15 | 2.11
18 | Cc1cc(N2CCC3CCC(C2)N3C)nc(C2CC2)n1 (stereo not given) | -6 | 1.1
19 | CO[C@@H](Cn1cc(C(N)=O)c(-c2ccccc2)n1)C1CCCC1 | -5 | 0.97
20 | CCc1nc(CN2CCN(C(C)C)[C@@H](C)C2)n[nH]1 | -9 | 1.72
21 | Cc1ccc2c(c1)[C@H]1CN(C)CC[C@H]1N2C(=O)CCc1cnn(C)c1 | -16 | 1.71
22 | COCCN(CCOC)C(=O)CCc1ccc(S(=O)(=O)F)cc1 | -8 | 0.92

Row | SMILES | % Inhibition [%] | Z score
23 | Clc1cccc(C2(N[C@H]3CCOC3)CC2)c1 | -4 | 0.52
24 | N[C@H]1C[C@@H]1c1ccc(Cl)cc1Cl | 10 | -1.12
25 | COCc1nc(NCCc2c[nH]cn2)c2cnn(C)c2n1 | -12 | 1.5
26 | CN(CC1CCCCC1O)C(=O)NCC1CN2CCN1CC2 (stereo not given) | 11 | -2.02
27 | Cc1ccnc(C(C)NC(C)Cc2cccc(O)c2)c1 (stereo not given) | -8 | 0.91
28 | c1ccc(-c2nnc(N3[C@@H]4CC[C@H]3[C@H]3CNC[C@H]34)s2)cc1 | -11 | 2.2
29 | O=C(Cc1ccsc1)N1CC(CF)C1 | -5 | 1.01
30 | CCOc1ccc(CN2CCN(CC3CC3)CC2)c(OCC)c1C | -6 | 0.72
31 | CN(C)CC(=O)N1C[C@@H]2C[C@H](C1)c1c(-c3ccc4ccccc4c3)ccc(=O)n1C2 | -4 | 0.57
32 | C[C@H]1CN(Cc2cccnc2)CCC1(F)F | -17 | 2.51
33 | Cc1ccc2nc(NC(=O)[C@@H]3CCCN3C(=O)Oc3ccccc3)sc2c1 | 4 | -0.79
34 | O=C(c1ccsn1)N1CCC(c2n[nH]c(=O)o2)CC1 | -8 | 1.59
35 | O=C(c1ccccc1)N1C[C@H](c2ccc3c(c2)OCO3)[C@@H]2[C@H]1C1CCN2CC1 | -2 | 0.23
36 | Cc1ccc(OCc2c(C(=O)NC3CCCCC3)c(=O)cc(C)n2CCN2CCOCC2)cc1 | -10 | 1.25
37 | Cc1nn(C)c2c1N(C(=O)C1C(C)(C)C1(C)C)CCO2 | -6 | 0.87
38 | Cc1ccc2c(c1)C(c1ccccc1)=N[C@@H](O)C(=O)N2 | 5 | -0.65
39 | Cc1cccc(CN2CCN3C(=O)N(C)C[C@H]3C2)n1 | 18 | -2.1
40 | CC[C@H]1CCCCN1C(=O)c1cn(Cc2cccc(OC)c2)cc(C(=O)NCc2nccs2)c1=O | -5 | 0.64
41 | O=C(c1cccc(Cl)c1)[C@H]1CCCN(C2CCC2)C1 | -14 | 1.5
42 | O=C(c1cn2cccnc2n1)N1C[C@@H](c2ccccc2)[C@@H]2[C@H]1C1CCN2CC1 | -5 | 1.02
43 | CCCN(CCN1CC2CCC(C1)O2)CC1CC1 | 1 | -0.11
44 | C#CCNC(C(C)C)C(O)c1ccccc1 (stereo not given) | -12 | 1.47

Row | SMILES | % Inhibition [%] | Z score
45 | CN(C)c1cc(NC(=O)N2C3CCNCC2CC3)ncc1Br (stereo not given) | -3 | 0.41
46 | CO[C@H]1CN(C(C)C)C[C@@H]1NC1CCCCC1 | -7 | 0.73
47 | COc1ccccc1[C@@H]1CN(c2nc(CO)cs2)[C@@H]2C3CCN(CC3)[C@@H]21 | -1 | 0.13
48 | CN1CCO[C@@H]2CN(C(=O)Cc3cnn(C)c3)C[C@@H]21 | 21 | -2.62
49 | O=C1NC(=O)C2(Cc3ccccc3N3CCC(c4ccccc4)CC32)C(=O)N1c1cc(Cl)ccc1Cl (stereo not given) | 32 | -3.65
50 | c1ccc2c(C3CCNCC3)ccnc2c1 | 14 | -1.84
51 | Cc1ccc(-c2cn(CC(=O)Nc3ccccc3C)c(=O)o2)cc1 | -11 | 1.84
52 | O=C(c1onc2c1CCCC2)N1C[C@H]2CC[C@@H](C1)N(CC1CC1)C2 | 4 | -0.56
53 | COC1CCN(C[C@H]2CCCCCN2C(=O)COc2ccc(F)cc2)CC1 | 1 | -0.1
54 | CN(Cc1ccccc1)C(=O)c1nn(Cc2ccccc2)c2nccc(-c3cccs3)c12 | -1 | 0.14
55 | CN(CC1=CCCCC1)Cc1n[nH]c(=O)o1 | 5 | -0.5
56 | Cc1cc2c(cc1-c1c(C#N)c(N)nc3c1N1CCC3CC1)OCCO2 | -6 | 0.95
57 | O=S1(=O)C[C@@H]2[C@H](C1)N(c1ncccn1)CCN2Cc1ccccn1 | 0 | 0.03
58 | O=C1[C@@H]2CCCN2[C@@H](c2ccccc2Cl)N1c1ccccn1 | -11 | 1.39
59 | O=C(NC1CCCCC1)Oc1cc2sc(=O)oc2cc1Br | -5 | 0.79
60 | C[C@@H](Cc1ccco1)NC(=O)Oc1ccccc1 | -10 | 1.45
61 | Cc1ccc2c(c1)[C@@H]1CN(C)CC[C@H]1N2 | 5 | -0.6
62 | c1cc(CN2CC[C@]3(CCOC3)C2)ccn1 | -17 | 1.82
63 | O=C(CCc1nc(C2=CCN(Cc3ccc(Cl)cc3)CC2)no1)NCc1cccnc1 | -12 | 1.41
64 | O=C(Cc1ccccc1)N1CCC2(CC1)OCCO2 | -13 | 1.24
65 | O=C(NCC(=O)N1CCC2(CC1)OCCO2)c1ccco1 | 6 | -1.17
66 | O=C1NC(=O)C2(Cc3ccccc3N3CCCCC32)C(=O)N1c1ccccc1 (stereo not given) | 6 | -0.73

Row | SMILES | % Inhibition [%] | Z score
67 | O=C(NCC#CCN1CCOCC1)c1ccc[nH]c1=O | 4 | -0.56
68 | O=C(c1cnc[nH]c1=O)N1C[C@@H](c2cc(F)cc(F)c2)[C@@H]2[C@H]1C1CCN2CC1 | -12 | 1.78
69 | FC(F)(F)c1cccnc1CN1CCCC2(C1)OCCO2 | -8 | 1.45
70 | CNc1ncc(CN(C)C(=O)Nc2cnns2)cn1 | -9 | 1.1
71 | CCc1nc(CN2C[C@@H]3CC[C@H]2CN(Cc2ccccn2)C3)cs1 | -7 | 1.03
72 | Cc1nn(C(C)(C)C)cc1C(=O)Nc1n[nH]c2c(Cl)cccc12 | 12 | -1.52
73 | CCOC(=O)C(C)N1CCN2C(=O)NC(=O)C2C1 (stereo not given) | -14 | 1.79
74 | Cc1nc(CC(=O)N(C)[C@H]2CCCN(CCCc3ccccc3)C2)cs1 | -4 | 0.51
75 | Cc1cc(NC(=O)c2ccc(F)cc2Cl)sc1C(=O)N1CCC2(CC1)OCCO2 | -13 | 1.32
76 | CCC(=O)N1CCC2(CC1)N(c1ccccc1)C(=O)C[S@+]2[O-] | -5 | 0.9
77 | Cc1cc(CN2CCN(C(=O)Cc3c(C)nn(C)c3C)CC2)on1 | -7 | 1.48
78 | COc1ncccc1CN1CC2(CCC2)[C@@H]1C1CCOCC1 | -9 | 1.37
79 | CN(C)S(=O)(=O)N1[C@@H]2CC[C@H]1Cc1nc(-c3ccccc3)[nH]c(=O)c1C2 | 3 | -0.59
80 | Cc1csc(NC(=O)c2ccc3c(c2)CCNCC3)n1 | -11 | 1.7
81 | CC1(C)C(C(=O)N[C@H]2CCC(=O)N[C@@H]2c2ccccc2)C1(C)C | -4 | 0.47
82 | CCc1nsc(N2CCC3CCC(C2)N3C)n1 (stereo not given) | 38 | -5.92
83 | c1ccc2c(CN3CCCCCC3)c[nH]c2c1 | 5 | -0.53
84 | O=C(Cn1c(-c2ccccc2)noc1=O)Nc1ccccc1Cc1ccccc1 | 5 | -0.91
85 | CC1CCC(NC2CCC(O)CC2)CC1 (stereo not given) | -6 | 0.9
